# The supplement of paper PMC3334620
# In all, about 33,000 sequences were measured (“E-score (-0.5 to 0.5)”: median about -0.04, highest 2% from about 0.36 on). The list shows a part of the results.
# Target: T1, Hmlalpha2 (UniProt P0CY09)
# T1 sequence: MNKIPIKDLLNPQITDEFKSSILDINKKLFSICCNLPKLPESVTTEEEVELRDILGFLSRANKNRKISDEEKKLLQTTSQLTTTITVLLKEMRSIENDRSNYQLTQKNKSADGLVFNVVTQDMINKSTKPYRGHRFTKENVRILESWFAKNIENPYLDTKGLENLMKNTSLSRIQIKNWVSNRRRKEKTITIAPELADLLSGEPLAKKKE
# Test: PBM E-score (8-mer binding enrichment) (E-score (-0.5 to 0.5)); higher = stronger / more preferred TF binding; most listed sequences are background and not binding sites
# Conditions: protein concentration: 200 nM; construct: GST-full length
# Method in brief: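 GST-tagged yeast TFs (full-length or DNA-binding domain) were made by PURExpress in vitro transcription/translation and applied at about 100-200 nM to universal all-10-mer Agilent arrays. The arrays were made double-stranded by primer extension, on fresh or once-stripped slides. Bound protein was detected with fluorescent anti-GST, and scans were normalised with masliner. Each ungapped eight-base word, pooled with its reverse complement, received an E-score (modified Wilcoxon-Mann-Whitney statistic) from the Universal PBM Analysis Suite.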
row,Sequence,PBM E-score
1,AGGTTGTG,0.114
2,CGTTTGGC,-0.0756
3,CACATTTA,0.167
4,CAGAAAGA,-0.0644
5,CCGGGTCA,-0.162
6,TGAAATCA,0.0716
7,GCATACTA,-0.0219
8,CCTACCAG,-0.351
9,CCTAGCTA,-0.193
10,CGAGTGCC,-0.285
11,ATTTATCG,0.0807
12,CCTGGGCG,-0.173
13,GGAGCTCC,-0.328
14,AACAAGGA,0.278
15,GAGTTTGA,0.0439
16,ACCGTTAA,0.0359
17,ACGGAAAC,-0.0693
18,CATATACG,0.262
19,ACCTGGCC,-0.079
20,CAACCTGA,0.0231
21,CGTTCATA,0.102
22,CATGCCGC,0.038
23,CACGATAA,0.285
24,GGTCGGCA,-0.263
25,AAGAGGCT,-0.137

row,Sequence,PBM E-score
1,ACATCTTC,0.0985
2,TCCCTAGA,-0.15
3,GATCGCGC,0.122
4,AAAGGCAG,0.0179
5,TAGTGGCA,-0.27
6,CAACGATC,-0.117
7,TCAACGGA,-0.00439
8,ATAGAACG,0.199
9,TACGCAAA,0.257
10,ATCATCGA,0.0634
11,AGTCGAGA,-0.111
12,AATTAGAC,0.156
13,ATGACTAG,0.145
14,ATCCGGCA,-0.184
15,ATTGGTCA,-0.0597
16,AGGAGCGA,-0.176
17,AGTAGTAA,0.188
18,CGACGGGA,0.0111
19,AGGGACCG,-0.25
20,AGATATCG,-0.257
21,CTCTTGAA,0.0111
22,CACTGTGA,-0.0701
23,CTCTCGAC,-0.101
24,AGCTGATC,-0.122
25,GCGATTCA,-0.149

row,Sequence,PBM E-score
1,GCCCTCTA,-0.28
2,AGCATAAT,-0.00529
3,CAGTTACA,0.284
4,AAAACATG,0.434
5,GCAGGGCA,-0.113
6,ACGCTCAG,-0.145
7,GCAAGAGC,-0.0932
8,CACATCCG,-0.0158
9,GAATCCCC,-0.188
10,ACTCAGTC,-0.17
11,GCCAGTCA,-0.239
12,CGATGACG,-0.13
13,CGGTACAG,0.00847
14,CCGATCTC,-0.191
15,AAGGACCT,-0.152
16,CGGTTAAG,0.114
17,AGTGAATC,-0.114
18,AGGTTCAC,-0.0765
19,AGCGAGCT,0.0336
20,CGCGTGAG,0.162
21,GACCGGTA,-0.328
22,AAACTACT,0.144
23,GAGTTCGC,-0.169
24,AGTGTATA,0.114
25,CAATCTAA,0.00357

row,Sequence,PBM E-score
1,GCTAGTAA,0.197
2,ACTCCAGG,-0.0632
3,AACGGAGA,-0.13
4,ATATCGCG,0.079
5,GAGGAGCC,-0.271
6,AAAGATGT,0.187
7,CCTAGCCC,-0.34
8,CGTTGATC,0.189
9,CACAGGCA,-0.0087
10,ACTGTGGC,-0.294
11,ACGCGTGA,0.285
12,CATTCACC,-0.0426
13,CGTGCGTC,0.127
14,GGCAGTCA,-0.191
15,CAAGGCTG,-0.109
16,CCTAAAAG,-0.129
17,CAGGAAAG,-0.269
18,CGGCCGGC,-0.25
19,GGTAACTA,0.201
20,AACGTACA,0.285
21,CGCCTTAG,-0.285
22,CTCCACTC,-0.275
23,CACAGGGA,-0.0907
24,CGTTCGGA,-0.228
25,CAGAAACC,-0.12

row,Sequence,PBM E-score
1,AACGCCCA,0.0874
2,AACGGCTC,-0.151
3,AGCTGTCA,-0.0794
4,CAACGTGC,0.195
5,AGCACCAT,-0.242
6,CTCCGTCC,-0.304
7,ATATAGCG,-0.125
8,AGGTAAAC,0.26
9,AGCTCTAT,-0.102
10,CGTGCAAG,0.0107
11,GAATCCAC,-0.00964
12,CATATCCG,-0.149
13,GCGGCTCC,-0.264
14,AGCACCCG,-0.24
15,CCGTGGCA,-0.00985
16,ACGAATAT,0.053
17,CGCTTAGC,-0.178
18,GACAGCGA,-0.238
19,CTTAATTC,0.00494
20,GGATCACC,-0.146
21,GTACGACA,0.196
22,ATCACCCA,-0.222
23,GGTTATTA,0.137
24,ACCTATTG,-0.0961
25,GGAATCCC,-0.235

row,Sequence,PBM E-score
1,ACGCATTC,0.156
2,CACAGATA,-0.0274
3,GGGGCTTA,-0.354
4,AGGGACAC,-0.0221
5,CAGTCTGC,-0.155
6,ACTTTAGA,-0.0293
7,AGCGACGC,-0.0871
8,ACGATAGC,0.0826
9,AAACACCG,0.196
10,ACTTCACG,0.0332
11,ATGACCAC,0.0275
12,GTGCGGAA,-0.0753
13,GATTCAAC,0.0589
14,GGACCATA,-0.143
15,AAAAGCAT,0.0453
16,AATTCCGC,-0.0526
17,ATCGAGGG,-0.255
18,ACTACTGG,-0.16
19,CTGTCAGC,-0.29
20,CGCAACCC,-0.00276
21,CTTAAACA,0.128
22,CTAGGGGC,-0.348
23,GCCAGTAC,-0.0253
24,CTAGACTA,-0.212
25,GACTGGAC,-0.23

row,Sequence,PBM E-score
1,ATGCCGCG,-0.118
2,CTTTAGTC,-0.284
3,GAGGTAGA,-0.0117
4,CGAATGCC,-0.185
5,CCTCATCG,-0.115
6,AATGCACA,0.16
7,CATCGGAA,0.052
8,AGCTAATA,0.222
9,ATCAGGCG,-0.0583
10,AACCCTTG,-0.0377
11,ATAACCGC,0.0357
12,CGTTTAGC,0.119
13,ATTAGCGG,-0.285
14,AAATTGAG,-0.0963
15,ACAGGTCT,-0.11
16,CATAAACA,0.384
17,GTGGAAAC,-0.0744
18,CTAGGTTA,0.0901
19,GAGTACAC,0.276
20,AAGTGGTG,-0.117
21,CAGCCAAA,-0.0144
22,CGCTTTCC,-0.146
